# Assay results reported in the antibiotic and cytotoxicity screens of Wong et al. (2023).
# The other results are listed elsewhere or left out.
# Tested on: S. aureus RN4220
# Test: growth inhibition call (relative growth <= 0.2)
# Conditions: 50 µM
row,SMILES,growth inhibition call
1,C1CCC(NC2CCCCC2)CC1,inactive
2,O=C1NC(=O)C(=C[C@@H]2CC=CCC2)C(=O)N1,inactive
3,C[C@@H]1CN([C@@H](C)CO)C(=O)CCCn2cc(nn2)CO[C@H]1CN(C)C(=O)Oc1ccc2ccccc2c1,inactive
4,N[C@@H](CO)Cc1ccccc1,inactive
5,C[C@H]1O[C@H](n2cnc3c(N)ncnc32)C[C@H]1O,inactive
6,C[C@@H](CN)CC(=O)O,inactive
7,O=C(O)/C=C/CO,inactive
8,Nc1ccc(Cl)cc1Cl,inactive
9,C=C[C@H]1[C@H](O[C@@H]2O[C@H](CO)[C@@H](O)[C@H](O)[C@H]2O)OC=C2C(=O)OCC[C@H]21,inactive
10,Cn1ccnc1N1CCNCC1,inactive
11,CCN(CC)C(=O)C1=NO[C@]2(CCNC2)C1,inactive
12,CC[C@@H]1/C=C/C=C/C[C@H](C)[C@@H](O)[C@](C)(O)C(=O)[C@H](C)[C@@H](O)[C@H](C)C(=O)[C@H](C)[C@@H](O)[C@H](C)/C=C/C(=O)O[C@H]2[C@@H](C)[C@@H](CC1)O[C@@]1(CC[C@@H](C)[C@@H](C[C@H](C)O)O1)[C@@H]2C,inactive
13,O=C(O)[C@H]1[C@H](C(=O)O)[C@H]2CC[C@@H]1O2,inactive
14,O[C@@H]1[C@@H]2C[C@H]3[C@H]1N[C@@H]1C[C@@H]2[C@@H]3[C@H]1O,inactive
15,CNc1ccc(C(=O)C[C@@H](O)CC[C@@H](C)[C@H]2OC(=O)C[C@@H](O)CC(=O)C[C@@H](O)C[C@@H](O)C[C@@H](O)C[C@@H](O)C[C@@]3(O)C[C@@H](O)[C@H](C(=O)OC)[C@@H](C[C@@H](O[C@@H]4O[C@H](C)[C@@H](O)[C@H](N)[C@@H]4O)\C=C/C=C\C=C/C=C\C=C/C=C\C=C/[C@@H]2C)O3)cc1,inactive
16,N[C@H]1CCN(c2cccnc2)C1,inactive
17,C=CCOC(=O)[C@@H]1[C@@H](C(=O)OC)N(C)[C@@H](c2ccccc2)[C@]12C(=O)Nc1ccc(I)cc12,inactive
18,O=C(O)Cc1cnc[nH]1,inactive
19,O=C(c1ccco1)N1[C@@H]2CC[C@H]1CNC2,inactive
20,Cl.NCCc1cc(O)c(O)cc1O,inactive

row,SMILES,growth inhibition call
1,O=C1CCO1,inactive
2,CC(C)C12CN3CCN(CC(C3)C1=O)C2,inactive
3,CN1CCN(c2ccccc2CN)CC1,inactive
4,CNC(=O)[C@H]1C[C@H]2CN(CC3CC3)C[C@H]1O2,inactive
5,OCC[N+]12CN3CN(CN(C3)C1)C2,inactive
6,c1cnc2[nH]cc(CN3CCNCC3)c2c1,inactive
7,Cc1csc(CCN)n1,inactive
8,COc1ccc(OC(=O)N(C)C[C@H]2OCc3ccccc3-c3c(n(C)c4ccccc34)C(=O)N([C@H](C)CO)C[C@H]2C)cc1,inactive
9,Cc1cc([N+](=O)[O-])cnc1N1CCNCC1,inactive
10,[N-]=[N+]=NCc1ccccc1C[C@@]1(C(=O)N2CCCCC2)N=C(c2ccc(OCCCO)cc2)O[C@@H]1c1ccccc1N=[N+]=[N-],inactive
11,O=C(O)CCl,inactive
12,COC(=O)[C@@]1(Cc2ccccc2CN=[N+]=[N-])N=C(c2ccc(OCCCO)cc2)O[C@H]1c1ccccc1CN=[N+]=[N-],inactive
13,CC(N)C(O)c1ccccc1.Cl (centres undefined),inactive
14,CN1CCN(c2nc(=O)c3c([nH]2)CCCC3)CC1,inactive
15,CC(=O)Nc1ccc(CCN)cc1,inactive
16,N[C@@]1(C(=O)O)CC[C@H](C(=O)O)C1,inactive
17,OCC(O)C1OC2OC(C(Cl)(Cl)Cl)OC2C1O (centres undefined),inactive
18,OCC(Br)(Br)Br,inactive
19,O=C(O)CF.[NaH],inactive
